First the molecules themselves.
B1: LINE1-full (parent)
chain: UACGUAGGUGGUUUUCCCCUGAUAGUGCUAAGGGGGCCUGGAAGUUUGGACUGGGCAGAGCUCAACACAGCGUGGCAAAGUGGCUGUGGCUAGACUGCCUCUCUGGAUUCCUCGUCACUCAGCAGGGCAUCUCUGAGAGAAAUGCC

The results in this text go back to the RNAGym collection of RNA variant scans (doi:10.7554/elife.90254).

Read counts are not given, so values of variants with three or more changes are uncertain.

The series covers variants of B1. Nature of the series: self-cleavage, relative activity (ratio to wild type); higher = more cleavage; in vitro, sequencing; the parent is a self-cleaving ribozyme.
In the case of UACGUAGGUGGUUUUCCCCUGACAGUGCUAAGGGGGCCUGGAAGUUCGGACUGGGCAGAGCUCAACACAGCGUGGCAAAGUGGCUGUGGCUAGACUGCCUCUCUGGAUUCCUCGUCACUCAGCAGGGCGUCUCUGAGAGAAAUGCC [U23C U47C A129G], the self-cleavage is 1.21.

For UACGUAGGUGGUUUUCCCCUGACAGUGCUAAGGGGGCCUGGAAGUUCGGACUGGGCAGAGCUCAACACGGCGUGGCAGAGUGGCUGUGGCUAGACUGCCUCUCUGGAUUCCUCGUCACUCAGCAGGGCAUCUCUGAGAGAAAUGCC [U23C U47C A69G A78G], the self-cleavage was 1.02.

UACGUAGGUGGUUUUCCCCUGACAGUGCUAAGGGGGCCUGGAAGUUUGGACUGGGCAGAGCUCAACACAGCGUGGCAAAGUGGCUGUGGCUAGACAGCCUCUCUGGAUUCCUCGUCCCUCAGCAGGGCAUCUCUGAGAGAAAUGCC [U23C U96A A117C]: the self-cleavage was 0.03. For the variant UACGUAGGUGGUUUUCCCCUGACAGUGCUAAGGGGGCCUGGAAGUUUGGACUGGGCAGAGCUCAACACAGCGUGGCAAAGUGGCUGAGGCUAGACUGCCUCUCUGGAUUCCUCGUCACUCAGCAGGGCAUCUCUGAGAGAGAUGCC [U23C U87A A141G], the self-cleavage amounted to 0.09.

For the variant UACGUAGGUGGUUUUCCCCUGACAGUGCUAAGGGGGCCUGGAAGUCUGGACUGGGCAGAGCUCAACACAGCGUGGCAAAGUGGCUGUGGCUAGACUGCCUCUCUGGAUUCCUCGUCACUCAGCAGGGCACCUCUGAGAGAAAUGCC [U23C U46C U130C], the self-cleavage came to 1.02. Consider UACGUAGGUGGUUUUCCCCUGACAGUGCUAAGGGGGCCUGGAAGUUUGGACUGGGCAGAGCACAACACAGCGUGGCAAAGUGGCUGUGGCUAGACUGCCUCUCUGGAUUCCUCGUCACUCAGCAGGGCAUCUCUGAGUGAAAUGCC [U23C U62A A138U], for which the self-cleavage worked out at 0.09.

In the case of UACGUAGGUGGUUUUCCCCUGACAGUGCUAAGGGGGCCUGGAAGUUUGGACUGGGCAGAGCUCAACACAGCGUGGCAAAGUGGCUGUGGCUAGACUGCCUCUCUGGACUCCUCGUCACUCAGCAGGGCACCUCUGAGAGAAAUGCC [U23C U108C U130C], the self-cleavage was 1.34. The figure for UACGUAGGUGGUUUUCCCCUGACAGUGCUAAGGGGGCCUGGAAGUUUGGACUGGGCAGAGCUCAACACAGCGUGGCAAAGUGGCUGUGGCUAGACUGCCUCUCUGGAUUCCUCGCCACUCAGCAGGGCGUCUCUGAGAGAAAUGCC [U23C U115C A129G] is 1.84; for UACGUAGGUGGUUUUCCCCUGACAGUGCUAAGGGGGCCAGGAAGUUUGGACUGGGCAGAGCUCAACACAGCGUGGCAAAGUGGCUGUGGCUAGAUUGCCUCUCUGGAUUCCUCGUCACUCAGCAGGGCAUCUCUGAGAGAAAUGCC [U23C U39A C95U] it is 0.33. In the case of UACGUAGGUGGUUUUCCCCUGACAGUGCUAAGGGGGCCUGGAAGCUUGGACUGGGCUGAGCUCAACACAGCGUGGCAAAGUGGCUGUGGCUAAACUGCCCCUCUGGAUUCCGCGUCACUCUGCAGGGCAUCUCUGAGAGAAAUGCC [U23C U45C A57U G93A U100C U112G A121U] it was 0; in that of UACGUAGGUGGUUUUCCCCUGACAGUGCUAAGGGGGCCUGGAAGUUUGGACUGGGCAGAGCACAACACAGCGUGUCAAAGUGGCUGUGGCUAGACUGCCUCUCUGGAUUCCCCGUCACUCAGCAGGGCAUCUCUGAGAGAAAUGCC [U23C U62A G75U U112C], 0.02; in that of UACGUAGGUGGUUUUCCCCUGACAGUGCUAAGGGGGCCUGGAAGUUUGGACAGGGCAGAGCUCAACCCAGCGUGGCAAAGUGGCUGUGGCUAGACUGCCUCUCUGGAUUCCUCGUCACUCAGCAGGGCAUCUCUGAGAGAAAUGCC [U23C U52A A67C], 0.08.

For UACGUAGGUGGUUUUCCCCUGAUCGUGCUAAGGGGGCCUGGAAGUUUGGACCGGGCAGAGCUCGACACAGCGUGGCAAAGUGGCUGUGGCUAGACUGCCUCUCUGGAUUCCUCGUCACUCAGCAGGGCAUCUCUGAGAGAAACGCC [A24C U52C A64G U143C], the self-cleavage was determined as 0.71. Take UACGUAGGUGGUUUUCCCCUGACAGUGCUAAGGGGGCCUGGAAGUUUGGACUGGGCAGAGCUCAACACAGCGUGGCAAAGUGGCUGUGGCUAGACUGCCUCUCUGGAUUCCUCGUCACCCGGCAGGGCAUCUCUGAGAGAAAUGCC [U23C U119C A121G]: the self-cleavage stood at 1.04.

As for UACGUAGGUGGUUUUCCCCUGACAGUGCUAAGGGGGCCUGGAAGUUUGGACUGGGCAGAGCUCAACACAGCGUGGCAAAGUGGCUGUGGCUAGACUGCCUCUCCGGAUUCCUCGCCACUCAGCAGGGCAUCUCUGAGAGAAAUGCC [U23C U104C U115C], the self-cleavage is 2.04. UACGUAGGUGGUUUUCCCCUGACAGUGCUAAGGGGGCCUGGAAGUUUGGACUGGGCAGAGCCCAACACAGCGUGGCAAAGUGGCUUUGGCUAGACUGCCUCUCUGGAUUCCUCGUCACUCAGCAGGGCAUCUCUGAGAGAAAUGCC [U23C U62C G86U]: the self-cleavage worked out at 0. As to UACGUAGGUGGUUUUCCCCUGAGAGUGCUAAGGGGGCCUGGAAGUUUGGACUGGGCAGUGCUCAACACAGCGGGGCAAAGUGGCUGUGGCUAGACUGCCUCUCUGGAUUCCUCGUCACUCAGCAGGGCAUCUCUGAGAGAAAUGCC [U23G A59U U73G], the self-cleavage was determined as 0.62. In the case of UACGUAGGUGGUUUUCCCCUGACAGUGCUAAGGGGGCCUGGAAGUUUGGACUGGGCAGAGCUCAACACAGCGUGGCAAAGUGGCUGCGGCUAGACUACCUUUCUGGAUUCCUCGUCACUCGGCAGGGCAUCUCUGAGAGAAGUGCC [U23C U87C G97A C101U A121G A142G] it was 0. In the case of UACGUAGGUGGUUUUCCCCUGACAGUGCCAAGGGGGCCUGGAAGUUUAGACUGGGCAGAGCUCAACACAGCGUGGCAAAGUGGCUGUGGCUAGACUGCCUCUCUGGAUUCCUCGUCACUCAGCAGGGCAUCUCUGAGAGAAAAGCC [U23C U29C G48A U143A] it was 0.8.
